Measured values taken from the supplement of paper PMC12632987.
Whole data set: some 2,300 sequences, median “median log2 fold change of GCK-ALFA target abundance (FLAG IP / Myc IP barcode read proportion)” near 0.095, cut for the lowest 2% near -0.47. This is one part of the list.

B1: LC3A_28_716 (protein)
chain: SKLDESLKEALKKAKEAAEKGEEVVIEIEVPGDATEEDIEKVIKTLEEIAEILKDLPSQTIIINVDGKVKQEHIDKIADEAEKIEKKYPNVTVIIALDEN
B2: LC3A_3_1428 (protein)
chain: AEELLARARETLERVGLSPEARAAVLELVRRALAAGAEEEVEELIRTLEEAKNVDSERILEAAERALRRVEEEGVPIEEALRELIEEVRLLRLEEEIEEL
B3: LC3A_28_724 (protein)
chain: NRLEASIAAALARARALAAAGESDVIEITIPGDATEEDIERVIEALEEIAAITADLPRTDIVINVEGGVKQEHIDRLADAAEAIEARYPNVTVIIALDEE
B4: LC3A_free_46_2411 (protein)
chain: WVVDVTIDLLAAPQEKIDAVVARIVAGAKAIAAELGGELEIKVERFQNPDGTTSAIINITFTFDTREKAEQAAQRLGDLIDAIDEETGLVGLVSIDVSEA
B5: LC3A_28_735 (protein)
chain: SPLDKNLAAALAEARAAAAAGEPQVITITVPGTATQEDIEKVIKALEEIAEILKDVPDQTIIIDIEGGVPQEHIDKLMKAAEEIEKKYPNVTVIFALDED
B6: LC3A_free_39_2283 (protein)
chain: SAAERAEVLARLEAIAAELSPEAQALLREIVEEFRDDVEGLRALAEALERAKEEGVDMEEVLRRALAVLRQGRAAGLSLEERRAAVLAEIEDMINLQPID
B7: LC3A_free_39_2287 (protein)
chain: SEEELEEAVERLEELLEEIEGVSEEEKEIILEAARESLEMAKAILEALEELRRLGGDVAEAAREIAALIRELRAAGASLEERTAAVIEKARDLVNLIPID
B8: LC3A_45_1965 (protein)
chain: MYLATLDMLVPREHAEEVLEIAKEAMEELEKEYGEDLKVDREVLEASYEATKDEEEVLLRVEIYHPDEEKALDAAVELEERIRERSGVDIASIISLKKLP
B9: LC3A_28_1276 (protein)
chain: SAIDESLKKALEKAKEAKKKKESAVIEIDVPGDATEEDIDKVIKTLKEIAEILKDIPNQAIVVNVDGKVPQKYIDKIADEAEKIEKEYPNITVIIALGEE
B10: LC3A_141_352 (protein)
chain: MTLEYEFTIKGSDIEEALKKMEEIFEKIKEEMEKENAKSVEIEVTITSKNPKTGETTEEKIKETATKENLDLVLDSLEIEIASRVIGNDVDVKITVTFHK
B11: LC3A_147_515 (protein)
chain: MYEVDIDILVKREGEEEVLEELEEILEELREEGYEVEVLEKRIEREGDEVFIYVKVLIRAPTPEEAEKAVNRLISRLEELEEKHKDLILGSLISVEKIEP
B12: LC3A_free_46_2300 (protein)
chain: IVVEIDIYFGAAEKEKIEEAAERLTKTAKETAEKLGAEVEIDVKIIKNEDGTYTLEIKITVKVKTKEQANEFSKAIMDTVDELTKELGVAAIISIDLIEE
B13: LC3A_free_39_2259 (protein)
chain: SEEERRRALEELERAAAQASPKVREAVLALAELLRDNVEALKELLELLKRALEKGPKAVEILGEFAAEAVERIKAGEDKEKAFEELKKLAKAAIEIEEID
B14: LC3A_28_1168 (protein)
chain: SPTLESIEKALKEAKEAKEKKEPTVITIYVPGGTTEEETEKVIEAIEEIAELLKDIKGSAIIVDIDSGVKQEHIDKIIKKAEEVEKKYPNISVIIALDED
B15: LC3A_3_1628 (protein)
chain: MEEKVEELEKKLKEAGHDEETIEKFREVAELLIERGFEEALETLIEEMEKLLDAPSEIVLAMLEEILATVKTEDLNEEELIEKIKEIARIARNESEIIEL
B16: LC3A_132_280 (protein)
chain: EEEKTKKAIEKVKELAEKAKENINDEEKVEKLVKELEEYLKKVEKEYSPETVAKVHETAADEYEELSEKAEEAGKEDLALYLDSLSIEAESRALEAEKKI
B17: LC3A_45_1935 (protein)
chain: MYKATVDILVPKELAEKALELIKEKGKELEKKYGDKIKVDFELLEKSYEETKDEEEVYLRVEIYADDEQTALDAADELEDYLRKELNNQVSAIISIEKLP
B18: LC3A_28_1045 (protein)
chain: SALEASAKAAIAEAEAQFAKGEEAVVTLTVPNVPTEEAKAVVTATLAELSALSKAHGGRKVTVVIDVDGDQETLDALIDAAEAAEAADPNLTVIIAYDDP
B19: LC3A_3_1510 (protein)
chain: MEEFIAELRELLKKMGASEEVIELAEENLRLLLERGYEEAAKTLYELLKEMKNASNETLLAFMKEVLELLLSTDLSEEEIIEKIKEIARTAKNDEEIIEL
B20: LC3A_23_632 (protein)
chain: MYRLDLTIDLLGREEDVRRAVEELVRHAEEAAKEHGAEILELRVRFEVEERPDGREAFAEIHIVVEAETEEKILKVRDSLLDHLDTLGVSAVASYEIEKL
B21: LC3A_3_1653 (protein)
chain: GEKLIEELLAWLKEQGKSEEVLEAVRKALTALIEKGYLETAKTFAELLKELAHLPDEILLWLAEEVLRLVETSDADEETMKAEVEELATTARNEGEIEEL
B22: LC3A_102_158 (protein)
chain: KAEEVLEERLEEIRRLAEELEKTLSPEEAERLRELVERAEELLRKYLEELKIGAQHDMETVEGIRAELELEEIIRELEELGAEEIAEKIRELVEELKELA
B23: LC3A_28_935 (protein)
chain: MTVEERIEKALAEAKAAAAAGEPVVITIKVTKEDTQEEVEKIIETIKEIADILKDVKGAAIIVDVDAGVPQERVDKIADTLEEIEEKYPNINAILALDED
B24: LC3A_147_491 (protein)
chain: ARVDVDVLVEGEEAAEEIIEEVKEIVEEFKKKGVKVELEVEKEEIEPGIWYVRITITVEAETPEEAMAAAREIESKIDEILEKHKDRVLAALISIEEIER
B25: LC3A_28_668 (protein)
chain: GSLKKKLEELLKKAKEAAKKGEATVIVLEVPGDATQEDVDYFIEKLEEIAELLKDVKGSAIIVDLSGDLSQEHRDKIIDKAEEINEKYPNVTVIIALEDR
B26: LC3A_3_1722 (protein)
chain: FEEIKERALKVLEEKGASEETIEAARELLDALEEKGFEEAAKTLLEELEELEGVPSERLLAALLDLLHLVTEEDLSEEEIIEEIKREFRVLKEDLEIEEL
B27: LC3A_28_1142 (protein)
chain: SELVEEAKKKIDEDAERDKDEPEALLRVTITSEMTVEEAEEIMDHVREVVEKLKDKEKIFIVVDATEPISQEVLDTIVEKLDEIEKEFPNVSSIIALPED
B28: LC3A_28_1062 (protein)
chain: MEVEEEIEEALAEAEEAVAAGEEALITLTIDDEDSEEDIERKLETMEEIAELAKSLPSVTILVDVDSSREEEVTKKVSEVGDRLEKKYPNVTVIIALSEE
B29: LC3A_28_1200 (protein)
chain: SAADKTIENIKKQTEKALEKGDGEVIIVNITSTMTSEDIDKIIKTIKEEAEKLKDVSSVSIVINVDAGVPQEDITKLAETGEEIEKKYPNITVIIALDED

target: MAP1LC3A, Q9H492; test: median log2 fold change of GCK-ALFA target abundance (FLAG IP / Myc IP barcode read proportion) (log2 ratio); each designed protein is fused to an ALFA-tag nanobody in HEK293 cells to bring the named protein to FLAG-tagged glucokinase (GCK); Myc marks an untargeted standard; higher = target protein stabilised (more abundant); conditions: target protein: 3xFLAG-MCP-GCK-ALFA reporter; HEK293 landing pad (RPLP)
Procedure, shortened: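 Sequencing of reverse-transcribed, amplified circular RNA barcodes from anti-FLAG and anti-Myc immunoprecipitates provided the readout for an ALFA-nanobody-fused binder library recombined into HEK293 landing-pad cells. Those cells were induced with 2 μg mL^−1 doxycycline, transfected with a plasmid expressing a FLAG-tagged target and a Myc-tagged standard, and lysed after 48 h. Target abundance is the per-binder median log2 ratio of FLAG to Myc barcode read proportions. Only barcodes at a proportion of ≥10^−7 in both replicates and binders with ≥3 barcodes per replicate were kept, with a 10^−6 pseudocount added before the two replicates were pooled.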

Binder | median log2 fold change
B1 | 0.283
B2 | 0.376
B3 | 0.154
B4 | 0.135
B5 | -0.245
B6 | 0.242
B7 | 0.257
B8 | -0.327
B9 | -0.0267
B10 | 0.258
B11 | -0.205
B12 | 0.00315
B13 | 0.156
B14 | -0.224
B15 | 0.147
B16 | 0.145
B17 | 0.0902
B18 | -0.0481
B19 | 0.254
B20 | -0.285
B21 | 0.293
B22 | 0.152
B23 | 0.121
B24 | -0.0755
B25 | 0.14
B26 | 0.0858
B27 | -0.129
B28 | -0.166
B29 | 0.341
